# Measurements: PubChem BioAssay AID624296 (National Center for Advancing Translational Sciences (NCATS), 2012)
# Out of some 350,000 compounds screened, about 9,900 (2.8%) were called active. Inconclusive results, whose numbers are uncertain, are shown with a selection of clear calls. Calls follow the shape of the dose curve; as a rule, active = well fitted activation curve with a large enough effect; inconclusive = small, poorly fitted or top-dose-only effect; inactive = no such curve, though single readings can be large or run the other way. No potency is given beside an inconclusive call; the fits are too rough.
# Experiment: A quantitative high throughput screen for small molecules that induce DNA re-replication in MCF 10a normal breast cells. Also: nearly all actives have a fitted effect of over 50% in size.
# Details: MCF 10A DNA re-replication, Hoechst nuclear intensity, 48 h; series mostly up to 46.1 µM
# Potency is read from the fitted curve at half-maximal effect; tags tell the direction and shape of the fitted curve.
row,Compound,Potency
1,CCOP(=O)(OCC)c1nc(-c2cccc3ccccc23)oc1NCCc1ccc(OC)cc1,active: 10.3 µM
2,COc1cc2c(c(OC)c1OC)-c1ccc(O)cc1C(NC(C)=O)CC2 (centres undefined),active: 0.058 µM
3,COc1ccc2[nH]c(C)c(CCNCc3cn(C)c4ccccc34)c2c1,"inconclusive [activator, partial curve, poor fit]"
4,COc1cc2c(cc1OC)-c1c(OC)c(OC)cc3c1[C@H](C2)[N+](C)(C)CC3,inactive
5,C#CCOCCOCCOCCNc1nc(N2CCN(C(=O)CCCCCCCCCCNC(=O)[C@H]([C@@H](C)CC)n3cc(CCCCN=C(N)N)nn3)CC2)nc(N2CCN(C(=O)CCCCCCCCCCNC(=O)[C@H](CO)n3cc(CCCCCN)nn3)CC2)n1,"inconclusive [activator, single point]"
6,Cc1nn(Cc2ccccc2)c(C)c1C(=O)NCc1ccccc1,inactive
7,CC(=O)OC12COC1CC(O)C1(C)C(=O)C(O)C3=C(C)C(O)CC(O)(C(OC(=O)c4ccccc4)C21)C3(C)C (centres undefined),active: 0.82 µM
8,Cc1ccc2c(c1)C1CN(C)CCC1N2C(=O)c1ccccc1NS(=O)(=O)c1cccc(C(F)(F)F)c1 (centres undefined),"inconclusive [activator, single point]"
9,CCCN(CCC)[C@@H]1CCc2cccc(O)c2C1,"inconclusive [activator, full curve, poor fit]"
10,C#CCN[C@H](C)Cc1ccccc1,"inconclusive [activator, single point]"
11,O=C1NC(=S)NC(=O)C1=Cc1cccn1-c1ccc(O)cc1,"inconclusive [activator, single point]"
12,COc1ccc(-c2ccc(OC)c(OC)c2OC)cc1,active: 4.61 µM
13,O=C(Nc1ccc2nc(-c3cccs3)c(-c3cccs3)nc2c1)NC1CC1,active: 17.8 µM
14,NC(N)=N/N=C/c1c(Cl)cccc1Cl,"inconclusive [activator, full curve, poor fit]"
15,Cc1nn(C(C)(C)C)c(C)c1/C=N/OC(=O)Nc1ccc(Cl)cc1,"inconclusive [activator, partial curve]"
16,COc1cc2c(c(OC)c1)C(=O)OC(C)CCCC(=O)CCCCC2 (centres undefined),"inconclusive [activator, single point]"
17,CCS(=O)(=O)N1CCCC(C(=O)N2CCC3(CC2)OCCO3)C1 (centres undefined),inactive
18,c1ccc(OCC2CO2)cc1 (centres undefined),"inconclusive [activator, full curve, poor fit]"
19,COc1ccc(-n2c(C)nc3cc(C(=O)N4CCC5(CC4)OCCO5)ccc32)cc1,"inconclusive [activator, single point]"
